According to PMC6005513:
No constants are given. Whether binding was seen depends on the method and setting. Some binding calls cover weakened binding; strength is not graded here.

Tests used:
[1] = molecular target: T1, Macaca silenus (lion-tailed macaque) Ntcp R158G (Macaca silenus); test: binding of fluorescently labelled peptide to transfected cells, plate fluorescence scan; 10 nM myr-preS1-Al633 peptide in DMEM, 20 min, 37°C, on NTCP/Ntcp-transfected HEK293 cells in 24-well plates; washed with DMEM 2 min at 37°C; plates scanned at room temperature (Typhoon FLA 7000, 633 nm), total signal per area; only the binder purified
T1 sequence: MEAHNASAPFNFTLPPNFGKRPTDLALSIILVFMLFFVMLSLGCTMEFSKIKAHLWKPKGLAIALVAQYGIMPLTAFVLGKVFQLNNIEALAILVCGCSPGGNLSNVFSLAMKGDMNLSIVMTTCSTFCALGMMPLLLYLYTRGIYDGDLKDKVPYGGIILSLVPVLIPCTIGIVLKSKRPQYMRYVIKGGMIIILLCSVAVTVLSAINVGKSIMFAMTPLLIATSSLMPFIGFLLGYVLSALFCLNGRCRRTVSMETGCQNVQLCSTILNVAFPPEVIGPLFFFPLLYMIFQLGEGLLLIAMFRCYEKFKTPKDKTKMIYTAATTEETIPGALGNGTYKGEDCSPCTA

[2] = molecular target: Papio hamadryas (hamadryas baboon) Ntcp, wild type (Papio hamadryas); test: as above

With “HBV myr-preS1-Al633-peptide (from UniProt P03138 2-48)” the binding [1] was “binds” and the binding [2] was “no binding (tested: 10 nM)”.
